# Hit rate of the full screen: of about 46,000 compounds, about 60 (0.1%) were called active. Not shown: some 3% with an inconclusive outcome. The call rests on the fitted dose curve; in most records, active means well fitted inhibition curve with a large enough effect; inconclusive means small, poorly fitted or top-dose-only effect; inactive means no such curve, though single readings can be large or run the other way. This is one part of the list.
# Test: Primary qHTS assay for Inhibitors of ovarian cancer metastasis using an organotypic tumor microenvironment (TME) model. Further: nearly all actives have a fitted effect of over 65% in size.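 On activity change, negative = inhibition: plate controls were DMSO wells for no effect and tomatine positive control wells for full effect.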
# Conditions: SKOV3ip1-GFP adhesion/invasion on 3D omental model, fluorescence; series mostly up to 45.8 µM; activity change, negative = inhibition: at the top concentration
# Summary of the method: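 Adhesion/invasion was scored as fixed GFP-labeled SKOV3ip1 cell counts (488/509 nm), normalized to DMSO and tomatine controls. Cancer cells in serum-free medium, with four compound doses (0.36-46 umol/L), sat 2 hr at RT then 16 hr at 37 C on a 48 hr fibroblast/mesothelial/ECM culture.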
Structure (SMILES),"activity change, negative = inhibition",outcome
COc1ccc(NC(=O)CSc2nc(-c3ccccc3)[nH]c2-c2ccccc2)cc1OC,inactive: 5.79%,
Cn1cc(C(=O)Nc2ccc(C#N)cc2)c2ccccc2c1=O,inactive: -3.7%,
COc1ccc(CCn2c(=O)c3cccnc3n(CC(=O)Nc3ccc(C)cc3C)c2=O)cc1OC,inactive: -4.48%,
Cc1nc(-c2ccc(S(=O)(=O)N(Cc3ccccc3)C(C)C)cc2)co1,inactive: -4.18%,
Cn1cnc2c(=O)oc3ccc(S(=O)(=O)N4CCN(c5ccccc5F)CC4)cc3c21,,inactive
O=C(Nc1cccc(C(=O)OCc2cc(=O)n3c4c(sc3n2)CCCC4)c1)c1cccc(Cl)c1,inactive: 8.03%,
Cc1ccc(Cl)cc1NC(=O)C1CCN(C(=O)c2cnn(-c3ccccc3)c2-n2cccc2)CC1,,inactive
CC(C)OCCCNC(=O)CCCn1c(SCC(N)=O)nc2c(sc3ccccc32)c1=O,,inactive
CCOc1ccc(CCNC(=O)c2ccc3c(c2)nc2n3CCOC2)cc1OCC,,inactive
O=C(CSc1nc2c([nH]c3ccccc32)c(=O)n1-c1ccc(F)cc1)NCc1ccc(F)cc1,inactive: 17.8%,
CC(NC(=O)C1CCN(S(=O)(=O)c2ccc3c(c2)oc(=O)n3C)CC1)c1ccccc1 (stereo unspecified),inactive: -7.38%,
O=[N+]([O-])c1ccc(S(=O)(=O)N2CCn3cccc3C2c2ccccc2F)cc1 (stereo unspecified),,inactive
CCOC(=O)c1c(C)oc2ncnc(N3CCN(c4ccccc4)CC3)c12,inactive: -4.86%,
Cc1ccc(C)c(N2CCN(c3nc4ccc(Cl)cc4n4cnnc34)CC2)c1,inactive: -15%,
COc1cccc(-c2nc(SCc3ccc(C)cc3)n3[nH]c(=O)cc3n2)c1,inactive: 4.78%,
CC(C)(C)OC(=O)N1CCC(c2c(C(=O)N3CCC(c4ccccc4)C3)cnn2-c2ccc(Cl)cc2)CC1 (stereo unspecified),inactive: -0.999%,
Cc1ccc(S(=O)(=O)NCCc2csc3nc(-c4ccccc4F)nn23)cc1C,inactive: 1.32%,
COC(=O)c1c(SCC(=O)Nc2cccc(Cl)c2C)[nH]c2ccccc2c1=O,,inactive
CN(C(=O)c1c2c(nc3ccccc13)C(=O)N(C1CCCCC1)C2)c1ccc(F)cc1,inactive: -5.41%,
Cc1ccc(-c2cc3c(n2-c2ccc(F)cc2)CC(C)(C)CC3=O)cc1,inactive: 4.08%,
COc1ccccc1-c1nc(S(=O)(=O)c2ccccc2)c(N2CCC(C)CC2)o1,inactive: 5.72%,
Cc1ccccc1OCc1nnc(SCc2cc(=O)c3ccc(C)c(C)c3[nH]2)n1C,inactive: -1.26%,
COc1ccc(Nc2nc3ccccc3nc2NS(=O)(=O)c2ccc(Cl)cc2)cc1OC,inactive: -20.9%,

Structure (SMILES),"activity change, negative = inhibition",outcome
COc1ccccc1CCNC(=O)C(=O)NCC(c1ccco1)S(=O)(=O)c1ccccc1 (stereo unspecified),,inactive
O=S(=O)(Nc1cccc(F)c1)c1ccc2[nH]c3c(c2c1)CCCCC3,inactive: -16.3%,
CC(=O)Nc1ccc(NC(=O)c2cnn(-c3ccccc3)c2C2CCN(C(=O)OC(C)(C)C)CC2)cc1,inactive: 7.38%,
CCC(C(=O)NCc1cccc(Br)c1)n1nc(C)c2c(C)n(-c3ccccc3)nc2c1=O (stereo unspecified),inactive: -0.872%,
COc1ccccc1-c1cc(C(=O)NCCc2ccccc2)no1,,inactive
CC(C)c1cnc2c(c1SCC(=O)O)c(=O)n(C)c(=O)n2C,,inactive
CCOC(=O)c1cccc(NC(=O)CSc2nc3cc4ccccc4cc3[nH]2)c1,inactive: 9.19%,
CCC(=O)N1CCc2cc(CNC(=O)c3ccc(C#N)cc3)ccc21,inactive: -3.8%,
CC(NC(=O)c1cc2ccccc2o1)c1ccccc1 (stereo unspecified),inactive: 15.3%,
O=C(CNC(=O)c1ccccc1F)OCc1cc(=O)n2nc(C3CC3)sc2n1,,inactive
COc1cc(OC)cc(C(=O)Nc2ccc3c(c2)OCCO3)c1,,inactive
NC(=O)C1CCCc2c1[nH]c1ccc(Cl)cc21 (stereo unspecified),inactive: -16.8%,
CCc1ccc(S(=O)(=O)c2cn(C)c3cc(F)c(F)cc3c2=O)cc1,inactive: -4.83%,
COc1ccccc1CN1CCN(C2CCN(C(=O)Nc3ccccc3)CC2)C(=O)C1=O,,inactive
Cc1ccc(NC(=O)Cn2c(-c3nonc3N)nc3ccccc32)cc1C,inactive: 1.01%,
COc1ccc(-c2nc3sc(CCNC(=O)C(=O)Nc4ccc(C)c(F)c4)c(C)n3n2)cc1,inactive: -5.28%,
CCCn1nc(NC(=O)c2cccc(Cl)c2)c2cc3cccc(C)c3nc21,inactive: -28.9%,
CCOC(=O)c1c(C)[nH]c(C)c1S(=O)(=O)N1CCCC(C(=O)Nc2cccc(C)n2)C1 (stereo unspecified),inactive: 11.5%,
CCOc1ccc(NC(=O)CSC2=Nc3ccccc3C3=NC(Cc4ccccc4)C(=O)N23)cc1 (stereo unspecified),inactive: 3.2%,
CCOC(=O)c1ccc(NC(=O)CC2C(=O)N(c3ccc(C)cc3)C(=O)N2C2CCCC2)cc1 (stereo unspecified),inactive: -7.49%,
COc1ccccc1N1CCN(S(=O)(=O)CCNC(=O)C2CC(=O)N(c3ccccc3)C2)CC1 (stereo unspecified),inactive: 2.38%,
COc1cc(NC(=O)c2cc3ccc4cccnc4c3[nH]2)cc(OC)c1OC,inactive: 4.8%,
CC(C)(C)C(=O)Nc1cccc(C(=O)OCc2cc(=O)n3nc(C4CC4)sc3n2)c1,inactive: 10.2%,

# From PubChem BioAssay AID1963576 (National Center for Advancing Translational Sciences (NCATS), 2024)
